Test results published in the supplement of paper PMC3334620.
Whole data set: some 33,000 sequences, median “E-score (-0.5 to 0.5)” near -0.016, cut for the highest 2% near 0.32. The list shows a part of the results.

biological target: T1, Stp1 (UniProt B3LFK1); test: PBM E-score (8-mer binding enrichment) (E-score (-0.5 to 0.5)); higher = stronger / more preferred TF binding; most listed sequences are background and not binding sites; settings: protein concentration: 200 nM; construct: GST-full length
T1 sequence: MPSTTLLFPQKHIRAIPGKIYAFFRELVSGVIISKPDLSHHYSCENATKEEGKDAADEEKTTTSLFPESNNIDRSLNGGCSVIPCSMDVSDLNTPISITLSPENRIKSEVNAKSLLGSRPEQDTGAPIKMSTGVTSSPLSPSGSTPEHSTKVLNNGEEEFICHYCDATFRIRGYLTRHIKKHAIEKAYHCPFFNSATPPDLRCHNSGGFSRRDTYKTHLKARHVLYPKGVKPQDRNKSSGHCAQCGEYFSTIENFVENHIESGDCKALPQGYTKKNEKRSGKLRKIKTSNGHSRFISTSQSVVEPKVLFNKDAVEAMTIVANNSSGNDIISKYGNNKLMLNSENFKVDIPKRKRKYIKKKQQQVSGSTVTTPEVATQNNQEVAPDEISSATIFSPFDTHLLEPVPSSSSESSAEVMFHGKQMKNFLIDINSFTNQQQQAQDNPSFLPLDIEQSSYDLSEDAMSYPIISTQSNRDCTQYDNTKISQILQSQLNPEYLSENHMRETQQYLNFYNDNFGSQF
Summary of the method: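 E-scores (a modified Wilcoxon-Mann-Whitney statistic) were assigned by the Universal PBM Analysis Suite to every ungapped eight-base word pooled with its reverse complement. The input came from universal all-10-mer Agilent arrays made double-stranded by primer extension and probed with GST-tagged yeast transcription factors at about 100-200 nM. Fluorescent anti-GST detected bound protein, and masliner normalised the scans.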

| Sequence | PBM E-score |
| --- | --- |
| AACCAGGC | -0.126 |
| TCGTGAGA | 0.0176 |
| AGGCAACC | -0.131 |
| ATTAAAAA | 0.271 |
| AAGGCGAA | 0.197 |
| ACGTTTTC | 0.0634 |
| AAGAATTC | 0.101 |
| GTCTGAAC | -0.0232 |
| GTCCGGCA | 0.0708 |
| CAGATTGG | -0.203 |
| GTCACGGA | -0.0129 |
| ATATGAAC | 0.164 |
| ACCGGCAT | 0.0121 |
| CCAGTGAC | -0.315 |
| GCGGACCC | -0.0187 |
| GTACGGCA | 0.48 |
| CAACGGAA | 0.123 |
| CACAAATG | 0.0609 |
| ACTAGACG | 0.157 |
| AGAGAGCG | -0.0278 |
| CACCAAGC | -0.0826 |
| CAGTCCCC | -0.241 |
| ATGGGGGC | -0.211 |
| GGTCTGTA | -0.159 |

| Sequence | PBM E-score |
| --- | --- |
| AAGAAGTA | 0.0506 |
| AAGATACA | 0.155 |
| ATATGGGG | -0.00704 |
| ATAGACAC | 0.0875 |
| TGGACCAA | -0.00151 |
| AGTTCCTC | -0.153 |
| CCAACCGG | 0.00956 |
| CTTCGCCC | -0.1 |
| CATGCAGG | -0.158 |
| AGTGATGC | 0.179 |
| GTTGAATA | 0.0719 |
| AAATCAGC | 0.0796 |
| GAACAATC | 0.0167 |
| CACCATCC | -0.335 |
| CATCACAC | 0.0122 |
| AGATTGCT | -0.0951 |
| AGATACAC | 0.0578 |
| ACCGGGCT | -0.311 |
| GCCGATCA | 0.123 |
| GATTCGAA | 0.166 |
| ACTAATTA | 0.255 |
| ACATGGGG | -0.166 |
| GCTAACAC | 0.0717 |
| CCCGGCGG | -0.317 |

| Sequence | PBM E-score |
| --- | --- |
| CGTCGTCC | -0.129 |
| CAACGCAA | 0.132 |
| GGCGAACA | 0.0676 |
| CGTACCTC | -0.14 |
| AGGCGTAT | 0.196 |
| ATTCGGCG | 0.31 |
| AAATGAGC | -0.0135 |
| ATATCCAC | 0.106 |
| AGGCGAGC | -0.167 |
| CACCGACG | -0.0444 |
| GTTAGCAA | 0.0597 |
| CCAAAAGA | 0.0668 |
| GGGTATGA | 0.118 |
| ACCCTAGG | -0.154 |
| AGCCTCCT | -0.0608 |
| AATGGCTA | 0.0992 |
| CCCATAAG | -0.0605 |
| ATTGTGTC | -0.066 |
| CAATTCTC | 0.00479 |
| GATCTCGC | 0.0296 |
| AACGGCAG | 0.384 |
| AAGTAAGT | -0.0444 |
| ACTTATAC | 0.082 |
| AAAGTTAA | 0.102 |

| Sequence | PBM E-score |
| --- | --- |
| CAAGTTGA | 0.152 |
| GACCATCA | -0.204 |
| CTGCCGCC | 0.226 |
| GTTGCCTA | 0.0499 |
| AGTCGGAC | -0.226 |
| TACTATGA | -0.00845 |
| GAGCGCTC | -0.273 |
| ATTTATTG | 0.0483 |
| ATACCGCG | 0.0435 |
| ATAGAAAG | -0.00223 |
| GTTGGACA | -0.0765 |
| ACTTATGG | -0.0126 |
| CCATTGAG | 0.149 |
| AACAGTAT | 0.102 |
| GCTGGGTA | -0.175 |
| ATGCACTC | -0.0521 |
| ACAGATAG | -0.0308 |
| CCGATTTC | -0.197 |
| AACTTCTC | -0.0459 |
| CCCCGCCC | 0.139 |
| ATACCAAA | 0.125 |
| ATTTCGTA | 0.0445 |
| CTTGAGAA | 0.0607 |
| GGAGTTTA | 0.0317 |

| Sequence | PBM E-score |
| --- | --- |
| AACGTTCC | -0.0561 |
| CACGCATC | 0.0489 |
| GCCGATAC | 0.166 |
| CGAAATGC | 0.058 |
| TAACAGGA | 0.082 |
| AACGAGTG | 0.0141 |
| ATACTCCG | -0.0692 |
| CCGGTTAG | 0.0271 |
| ACCCTCAT | -0.294 |
| AGTACCAC | -0.175 |
| CGGCGCAG | 0.428 |
| GCTAGTGA | -0.112 |
| CGCCTAAC | 0.173 |
| CTCCAAGA | -0.0573 |
| CTGGAGTC | -0.362 |
| CTACCGAA | -0.205 |
| AGGATTCA | 0.018 |
| TACTGTCA | -0.0638 |
| CAACAATA | 0.155 |
| ACCCCCCT | -0.476 |
| ACGTATAC | 0.115 |
| CTTTCCAC | -0.0511 |
| CATGGTAA | -0.078 |
| AATTGCGC | 0.258 |

| Sequence | PBM E-score |
| --- | --- |
| ACCCTCGT | -0.093 |
| GGCTAGTA | 0.134 |
| AGTTAGGA | -0.0341 |
| ACTTCCCG | -0.0848 |
| CACTTCCG | -0.0304 |
| CCACTCGA | 0.133 |
| AACATTGA | 0.119 |
| CGTGAGAA | -0.00801 |
| CGTGGGCA | -0.0733 |
| CGTATCGA | -0.0269 |
| CATGGCAC | 0.311 |
| CGCGGGAC | -0.1 |
| AGTTAGTC | -0.253 |
| ACGCAAGT | -0.141 |
| AGGAATGA | 0.00228 |
| GTGCGACA | -0.0105 |
| AGGACAGA | -0.232 |
| GACCAGTC | -0.129 |
| ATGGTGAG | -0.2 |
| GCTTCTAC | 0.0532 |
| AGCAATGG | -0.197 |
| AGTTGTAA | 0.0158 |
| ATTTTATA | 0.255 |
| CTCCGATA | -0.217 |

| Sequence | PBM E-score |
| --- | --- |
| CCGGTGAC | -0.284 |
| ACTAGCAC | -0.237 |
| GAACTAGA | 0.148 |
| ACGCTGCT | -0.216 |
| CAAATTGC | 0.115 |
| GGAGGAGA | -0.317 |
| CCTCCCAA | -0.151 |
| CTTGAATA | 0.0938 |
| CTGGCGAC | -0.178 |
| AACCGTCA | -0.225 |
| AACCTTCG | -0.00287 |
| CGTCTCTA | -0.236 |
| GCAAATAA | 0.232 |
| ATATGCTA | 0.0789 |
| ATTCCCAG | -0.0955 |
| CCTTCAAA | 0.0503 |
| TAGGTAGA | -0.0558 |
| AAGTAAAG | -0.116 |
| GTACTCAC | 0.0627 |
| TTGTCAAA | 0.151 |
| CCTAACAA | 0.103 |
| CATCGCTC | -0.0903 |
| GTATTAAA | 0.245 |
| CAGGCTGC | -0.119 |

| Sequence | PBM E-score |
| --- | --- |
| CCAGGAGA | -0.0605 |
| CATGGAGA | -0.135 |
| GGATCGCA | -0.0944 |
| CCCCTAAA | -0.228 |
| CCTGATAA | 0.0292 |
| GGGTCCGA | -0.218 |
| TACTTTGA | 0.0852 |
| TAACGGTA | 0.0369 |
| GGCGTACC | 0.106 |
| CCAAGTGA | -0.153 |
| ATCGCACC | -0.169 |
| AAGGTTCC | -0.0856 |
| GGCGGTAA | 0.163 |
| GTTTTGAA | 0.181 |
| CCGATAAC | -0.0332 |
| ACAGTGAT | 0.0195 |
| ATTAGGAG | 0.103 |
| ATGGAAGC | 0.0002 |
| CAGACATC | 0.00256 |
| AATGCGGG | 0.174 |
| TCGATACA | 0.194 |
| AAACTTAG | 0.0613 |
| ATCTGCCC | -0.219 |
